Measurements reported in the supplement of paper PMC4604168 (melanoma cell lines).
This is one part of the list. Single values are uncertain, as repeats are few or missing.
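Also: cells treated in 1,536-well plates, then fixed and DAPI-stained, with nuclei counted from automated high-throughput microscope images.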

Each molecule was assayed on RVH-421 (assay: cell count relative to DMSO control; melanoma cells; higher = more viable cells). Settings: library dose: standard library concentration; 72 h; first compound 2 µM.
With `C[C@@H](N)c1ccc(C(=O)Nc2ccnc3[nH]ccc23)cc1` + CO[C@@H]1[C@H](N(C)C(=O)c2ccccc2)C[C@H]2O[C@]1(C)n1c3ccccc3c3c4c(c5c6ccccc6n2c5c31)C(=O)NC4 [Midostaurin] (partner dose 0.4 µM) the cell count was 37.8%.
Work on `Cn1sc(=O)n(Cc2ccccc2)c1=O` + Nc1cccc2c1CN(C1CCC(=O)NC1=O)C2=O [lenalidomide] (partner dose 5 µM) yielded a cell count of 78.9%.
For `Cn1sc(=O)n(Cc2ccccc2)c1=O` + COc1cc2c(Oc3ccc4[nH]c(C)cc4c3F)ncnc2cc1OCCCN1CCCC1 [cediranib] (partner dose 2 µM), the cell count was 97.2%.
`C[C@@H](N)c1ccc(C(=O)Nc2ccnc3[nH]ccc23)cc1` + Cn1sc(=O)n(Cc2ccccc2)c1=O [TDZD-8] (partner dose 2 µM) showed a cell count of 30%.
For `C[C@@H](N)c1ccc(C(=O)Nc2ccnc3[nH]ccc23)cc1` + CC(C)C[C@H](NC(=O)[C@H](Cc1ccccc1)NC(=O)c1cnccn1)B(O)O [Bortezomib] (partner dose 0.005 µM), the cell count was 4.67%.
With `CCCCCCCCCCCCCCCCCCOP(=O)([O-])OC1CC[N+](C)(C)CC1` [Perifosine] + C#Cc1cccc(Nc2ncnc3cc(OCCOC)c(OCCOC)cc23)c1 [erlotinib] (partner dose 4 µM) the cell count was 69.1%.
With `Cn1sc(=O)n(Cc2ccccc2)c1=O` + CNC(=O)c1cc(Oc2ccc(NC(=O)Nc3ccc(Cl)c(C(F)(F)F)c3)cc2)ccn1 [sorafenib] (partner dose 2 µM) the cell count was 85.5%.
In the case of `CCCCCCCCCCCCCCCCCCOP(=O)([O-])OC1CC[N+](C)(C)CC1` [Perifosine] + C[C@]1(c2nc3c(C(N)=O)cccc3[nH]2)CCCN1 [Veliparib] (partner dose 7 µM), the cell count is reported as 103%.
For `Cn1sc(=O)n(Cc2ccccc2)c1=O` + Cc1cc(Nc2cc(N3CCN(C)CC3)nc(/C=C/c3ccccc3)n2)n[nH]1 [ENMD2076] (partner dose 0.2 µM), the cell count was 71.3%.
`CCCCCCCCCCCCCCCCCCOP(=O)([O-])OC1CC[N+](C)(C)CC1` [Perifosine] + COc1ccc(C2=N[C@@H](c3ccc(Cl)cc3)[C@@H](c3ccc(Cl)cc3)N2C(=O)N2CCNC(=O)C2)c(OC(C)C)c1 [Nutlin-3] (partner dose 0.5 µM) showed a cell count of 59.6%.
`Cn1sc(=O)n(Cc2ccccc2)c1=O` + Cn1c(=O)n(-c2ccc(C(C)(C)C#N)cc2)c2c3cc(-c4cnc5ccccc5c4)ccc3ncc21 [NVP-BEZ235] (partner dose 0.02 µM) was tested, and the cell count was 81.8%.
`C[C@@H](N)c1ccc(C(=O)Nc2ccnc3[nH]ccc23)cc1` + Nc1nc(F)nc2c1ncn2[C@@H]1O[C@H](CO)[C@@H](O)[C@@H]1O [fludarabine] (partner dose 1 µM) gave a cell count of 42.3%.
In the case of `C[C@@H](N)c1ccc(C(=O)Nc2ccnc3[nH]ccc23)cc1` + O=C(Nc1cccc(Cl)c1)Nc1ncc(CCNc2ncnc3ccsc23)s1 [SNS314] (partner dose 0.004 µM), the cell count is reported as 43.3%.
With `Cn1sc(=O)n(Cc2ccccc2)c1=O` + O=C(O)c1ccc2c(c1)nc(Nc1cccc(Cl)c1)c1ccncc12 [CX4945] (partner dose 2 µM) the cell count was 97.6%.
`Cn1sc(=O)n(Cc2ccccc2)c1=O` + COc1ccc(Cl)c(Nc2nc3ccccc3nc2NS(=O)(=O)c2cccc(NC(=O)C(C)(C)N)c2)c1 [XL147] (partner dose 4 µM) showed a cell count of 80%.
For `CCCCCCCCCCCCCCCCCCOP(=O)([O-])OC1CC[N+](C)(C)CC1` [Perifosine] + Cn1nnc2c(C(N)=O)ncn2c1=O [temozolomide] (partner dose 10 µM), the cell count was 122%.
With `CCCCCCCCCCCCCCCCCCOP(=O)([O-])OC1CC[N+](C)(C)CC1` [Perifosine] + Clc1ccc(Nc2nnc(Cc3ccncc3)c3ccccc23)cc1 [vatalanib] (partner dose 10 µM) the cell count was 114%.
In the case of `C[C@@H](N)c1ccc(C(=O)Nc2ccnc3[nH]ccc23)cc1` + COc1cc(Nc2ncc(F)c(Nc3ccc4c(n3)NC(=O)C(C)(C)O4)n2)cc(OC)c1OC [Tamatinib] (partner dose 2 µM), the cell count is reported as 60.7%.
For `C[C@@H](N)c1ccc(C(=O)Nc2ccnc3[nH]ccc23)cc1` + COc1cc2c(Oc3ccc4[nH]c(C)cc4c3F)ncnc2cc1OCCCN1CCCC1 [cediranib] (partner dose 2 µM), the cell count was 59.3%.
